Measured values published in publication PMC4336329 (PLoS ONE, 2015).
Among all 310,000 compounds or so, about 2,200 (0.71%) showed an effect of 50% or more. Effects have a minus sign here. The list shows a part of the results.

Biological target: human ether-à-go-go-related gene (hERG) potassium channel (human, UniProt Q12809)
Assay: primary screen, population patch clamp on CHO cells stably expressing hERG

human ether-à-go-go-related gene (hERG) potassium channel, sequence (Q12809 whole entry, looked up): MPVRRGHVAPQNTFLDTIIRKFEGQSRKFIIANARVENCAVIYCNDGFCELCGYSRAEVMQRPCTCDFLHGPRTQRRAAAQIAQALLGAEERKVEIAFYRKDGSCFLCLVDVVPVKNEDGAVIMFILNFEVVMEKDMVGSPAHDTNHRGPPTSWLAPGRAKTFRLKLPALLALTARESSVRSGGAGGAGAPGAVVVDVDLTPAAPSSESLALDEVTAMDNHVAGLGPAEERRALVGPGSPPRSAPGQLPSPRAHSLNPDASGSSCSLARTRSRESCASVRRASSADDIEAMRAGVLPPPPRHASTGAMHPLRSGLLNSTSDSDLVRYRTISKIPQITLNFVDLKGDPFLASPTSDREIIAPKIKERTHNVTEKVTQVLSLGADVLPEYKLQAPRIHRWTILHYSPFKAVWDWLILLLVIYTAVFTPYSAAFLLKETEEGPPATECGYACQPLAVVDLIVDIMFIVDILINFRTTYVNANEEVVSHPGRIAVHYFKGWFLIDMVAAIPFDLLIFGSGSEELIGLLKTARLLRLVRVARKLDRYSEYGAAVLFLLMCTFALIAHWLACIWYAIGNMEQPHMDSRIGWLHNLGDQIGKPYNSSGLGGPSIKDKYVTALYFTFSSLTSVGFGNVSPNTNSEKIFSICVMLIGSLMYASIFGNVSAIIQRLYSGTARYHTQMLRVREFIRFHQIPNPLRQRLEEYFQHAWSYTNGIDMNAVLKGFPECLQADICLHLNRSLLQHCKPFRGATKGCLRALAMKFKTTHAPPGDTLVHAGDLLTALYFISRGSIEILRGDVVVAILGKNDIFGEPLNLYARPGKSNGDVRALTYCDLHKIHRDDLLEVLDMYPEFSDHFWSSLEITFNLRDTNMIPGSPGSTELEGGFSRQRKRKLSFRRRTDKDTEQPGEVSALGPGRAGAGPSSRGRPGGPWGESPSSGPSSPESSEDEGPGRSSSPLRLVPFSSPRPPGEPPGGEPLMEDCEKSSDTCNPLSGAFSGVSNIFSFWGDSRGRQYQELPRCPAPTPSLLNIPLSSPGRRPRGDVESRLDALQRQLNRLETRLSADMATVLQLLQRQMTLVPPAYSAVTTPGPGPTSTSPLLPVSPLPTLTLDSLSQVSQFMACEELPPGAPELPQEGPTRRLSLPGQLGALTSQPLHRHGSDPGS

| SMILES | hERG current change (%, negative = inhibition) at 1uM |
| --- | --- |
| CCOc1cc2nc3c4ccccc4n(C)c3nc2cc1OCC | 7.6% |
| O=C(NC1CCCC1)C1CCN(C(=O)NCc2ccccc2)CC1 | 11.3% |
| Cc1cc(C)cc(OCCNC(=O)c2ccc(Br)cc2)c1 | 14.7% |
| COc1ccccc1NS(=O)(=O)c1cccc(NC(=S)NCCN2CCOCC2)c1 | -3.43% |
| Cn1cccc1C(=O)C(=O)Nc1ccc(F)c(F)c1 | 2.72% |
| COCCN=C1OC(=O)N2C(=O)C3=C4[C@@H](C[C@H]5C(=O)N(c6ccccc6)C(=O)[C@H]5[C@H]4[C@@]12Cc1ccccc1)[C@H]1C(=O)N(c2ccccc2)C(=O)[C@H]1[C@H]3C | 14.3% |
| Cc1ccc(C(=O)N2CC(=O)Nc3ccc(F)cc3C2c2ccccc2)cc1 (stereo not shown) | 11.7% |
| O=C(Cc1ccc(F)cc1)N/N=C/c1ccc(-c2ccc(Cl)c(C(=O)O)c2)o1 | 39% |
| O=C(CCN1CCN(C/C=C/c2ccccc2)CC1)Nc1ccccc1 | -79% |
| Cc1c(Cl)c(C(=O)NNC(=S)NCc2ccco2)nn1C | 2.71% |
| Cc1cc(OCC(=O)NNC(=S)NC(=O)c2cccs2)ccc1Cl | 12.2% |
| COC(=O)C(CCSC)NC(=O)c1cc2c(n(-c3ccc(C)cc3)c1=O)CCCC2=O (stereo not shown) | 9.13% |
| CC(=O)Nc1ccc2c(c1)C(=O)N(c1ccc(C)cc1)C2=O | 4.7% |
| CCc1c(C(=O)NC(C)C2CCCO2)csc1C (stereo not shown) | -4.32% |
| CCc1nnc(NC(=O)CSc2nc(C)cs2)s1 | 11.8% |
| Cc1ccc(C(=O)N2CCN(c3ncnc4c(-c5ccccc5)nsc34)CC2)cc1 | 2.78% |
| CCOc1ccccc1NC(=O)c1ccccc1N(C)S(=O)(=O)c1ccc(C)cc1 | 1.87% |
| Cc1cc2ncn(C(=O)c3ccc(F)cc3)c2cc1C | 11.5% |
| O=C(O)c1ccc(N/N=C/C(Br)=C/c2ccccc2)cc1 | 10.8% |
| CCc1nnc(NC(=O)CSc2nnc(CNC(=O)c3cc(OC)c(OC)c(OC)c3)o2)s1 | 20.9% |

| SMILES | hERG current change (%, negative = inhibition) at 1uM |
| --- | --- |
| O=C(Nc1ccc(F)cc1)C1CCCN(c2cnccn2)C1 (stereo not shown) | -13.4% |
| Cc1cc(Oc2ccc(C)c(Cl)c2)nc(SCC(=O)c2ccccc2)n1 | 9.85% |
| Oc1ccc(N2CCN(CC(O)c3ccccc3)CC2)cc1 (stereo not shown) | 16.2% |
| O=C(Nc1cccc2cccnc12)c1ccccc1Cl | 9.51% |
| COc1ccc2c(c1OC)C(=O)N(c1cccc(/C=C/C(=O)O)c1)C2 | 13.5% |
| Cc1ccc(C)c(C(=O)OCC(=O)Nc2ccc(N3CCOCC3)cc2)c1 | 12.4% |
| CCC1=NN2C(=N)/C(=C\c3ccc(OCCOc4ccccc4OC)cc3)C(=O)N=C2S1 | 10.4% |
| COc1cc(CCCN2C(=O)C(=O)NC[C@@H]2C(C)O)cc(OC)c1OC (stereo partly shown) | 9.42% |
| CCOC(=O)/C(C#N)=C\c1ccc(N2CCN(C/C=C/c3ccccc3)CC2)cc1 | 8.07% |
| COc1ccc(N2CCN(/C(=N\S(=O)(=O)c3ccc(C)cc3)Nc3nc(C)cc(C)n3)CC2)cc1 | 7.99% |
| Cc1cc(C)nc(Nc2n[nH]c(-c3ccccc3Br)n2)n1 | 14.4% |
| CCc1cc(=O)[nH]c(SCC(=O)N2CCOCC2)n1 | 2.76% |
| CC1CCC2(CC1)NC(=O)N(CC(=O)N1CCN(c3ccccc3)CC1)C2=O (stereo not shown) | 9.36% |
| COc1ccc(C(C(=O)NC2CCCC2)N(C(=O)Cc2cccs2)C2CC2)cc1OC (stereo not shown) | 11% |
| CCC(=O)c1ccc(OCC(=O)N2CCN(c3ccccn3)CC2)cc1 | -12.7% |
| COCC(C)NC(=O)c1oc2c(c1C)C1(CCC2)SCCS1 (stereo not shown) | 19.7% |
| CCC(Sc1ccccc1C(=O)O)C(=O)O (stereo not shown) | 13.6% |
| CCOC(=O)c1ccc2c(c1)N(C)C(=O)c1ccccc1S2 | 17.4% |
| Cc1ccc(CC2CC(=O)N(c3ccc(Cl)cn3)C2=O)cc1 (stereo not shown) | 9.15% |
| CC(=O)C1=C(c2ccccc2)NC(=O)NC1c1ccccc1 (stereo not shown) | 15.4% |

| SMILES | hERG current change (%, negative = inhibition) at 1uM |
| --- | --- |
| O=c1c2ccccc2ncn1-c1ccc2c(c1)OCCO2 | 2.75% |
| CCOc1ccc(NC(=O)c2cc3cc4ccc(C)cc4nc3o2)cc1 | 5.98% |
| Cc1cc(C)nc(SCCN2CCCCC2)n1 | 14.5% |
| COc1ccccc1C(=O)NCCC(=O)NCc1cccs1 | 5.41% |
| C/C(=N\NC(=O)c1cccnc1)c1ccc(C)c([N+](=O)[O-])c1 | 3.07% |
| CCCc1cc(=O)oc2c3c(cc(OCC(=O)NCCN4CCOCC4)c12)OC(C)(C)CC3 | 3.57% |
| COCc1nnc(NC(=O)CCC2CCCCC2)s1 | 6.28% |
| COc1ccc(CCNC(=O)/C(=C/c2cccnc2)NC(=O)c2ccccc2)cc1OC | 12.7% |
| Cc1ccccc1NC(=O)CN1C(=O)S/C(=C/c2cccnc2)C1=O | 13.9% |
| CCCCn1nnc(NC(=O)c2ccc(-c3ccccc3[N+](=O)[O-])o2)n1 | 9.81% |
| CCN(CC)S(=O)(=O)c1ccc2oc(C(=O)O)c(C)c2c1 | 0.94% |
| O=c1c(NCCc2ccccc2)c(-c2ccccc2)c1=O | 21.6% |
| FC(F)c1nnc2ccc(Cl)nn12 | 22.4% |
| COc1cccc(C(=O)Nc2ccccc2F)c1 | 12.7% |
| Cc1sc(NC(=O)CSc2nnnn2C(C)C)c(C#N)c1C | 13.9% |
| Cl.NCCCC(N)(C(=O)O)C(F)F (stereo not shown) | 17% |
| CC(=O)Nc1ccc(C(=O)CN2C(=O)CSC2=O)cc1 | 5.53% |
| O=C(COc1ccc(Cl)cc1)NCc1nnc(SCC(=O)N2CCCC2)o1 | -3.96% |
